Results on 44 sequences are retold here after the supplement of paper PMC11417369.

Some of the results follow.

This assay has as its system PfSIP2 AP2 domain 1 (GST-tagged). Description: gcPBM binding intensity (ln(normalized median fluorescence intensity)); higher = stronger DNA binding. The gist of the method:
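Each value is the highest Masliner-normalised natural-log median intensity across replicate spots of either orientation of a probe. The probes were primer-extended double-stranded 36-bp intergenic genomic sequences on an Agilent 4 × 180k array, alongside negative controls, exposed for 1 h to GST-tagged P. falciparum DNA-binding domains expressed in E. coli. Bound protein was picked up with Alexa488 anti-GST antibody and scanned at 488 nm.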
On to “AGAGAGAGAAATACAAGTACATGTGAAACCAATCTA [XGTACX_site2767]”, for which the “gcPBM binding intensity (ln)” value stood at 6.98. Consider “AAAAAATAAAAAAAAACACACACATACAAGCATATA [CACACA_site8451]”, for which the “gcPBM binding intensity (ln)” value is 6.91. With “TTCAACATAATATGCACACAAAAATTATGGAACGAA [CACACA_site2111]”, the “gcPBM binding intensity (ln)” value was determined as 8.18. On to “AAAAAAAAAAAAATTGCACACAAAAAAAAAAAAAAA [CACACA_site8644]”, for which the “gcPBM binding intensity (ln)” value came out at 7.5. With “AAAAAAAACAAATACACACGCACACCGAAAAAAAAA [CACACA_site803]” the figure was 7.1; with “CAGACAATAAAGAAGTGTACACATATATCAATAAAA [XGTACX_site4515]”, 7. Consider “CTTTATCTTCTCACGAAGATTGAATAAGGTATTCTT [XGTACX_negctrl_site307]”, for which the “gcPBM binding intensity (ln)” value was found to be 6.6. Turning to “AAAAAAAAAAAACACACACACACACCCACAAAATAT [CACACA_site1447]”, the “gcPBM binding intensity (ln)” value came out at 7.15. Turning to “AAAAAAAAATACCTACGTACATATATATATTATATA [XGTACX_site3983]”, the “gcPBM binding intensity (ln)” value turned out to be 7.38. Regarding “TTAATGCACTTTATTACACACACTAGTTCATTACCT [CACACA_site2294]”, the “gcPBM binding intensity (ln)” value turned out to be 8.54.

“TATATTATAATTTGAAGTACATTTTAAATTAACTAA [XGTACX_site1013]”: the “gcPBM binding intensity (ln)” value turned out to be 6.99. With “ATATAATAGTATATATGTACATATATTTAAATACTA [XGTACX_site1135]” the figure was 7.02; with “TATTTTATAAATACAAGTAAAATTAAATATATAATA [XGTACX_negctrl_site221]”, 6.83; with “AGGAGGATATTACACAGTACCCAGGAAATCTACGGA [XGTACX_site4878]”, 6.82. Consider “TTGTACTACAATCCTTTATTTATTTAAACCTGTATG [CACACA_negctrl_site428]”, for which the “gcPBM binding intensity (ln)” value is 7.01.

With “TATATAAATAGACACACACACACATATAAATAAATA [CACACA_site7855]”, the “gcPBM binding intensity (ln)” value stood at 7.1. With TTTCAATGCATAAAAGTGCGCAATAATTTAAAGATC, the “gcPBM binding intensity (ln)” value stood at 8.56. For “AAAAAAAAATAAAATAAAATAAAATAAAATAATATA [CACACA_negctrl_site1798]”, the “gcPBM binding intensity (ln)” value came to 6.76. Take AAACAAATGTACAAAGTGCATATTTTTTTCAAAAGG: the “gcPBM binding intensity (ln)” value came to 8.11. For “ACATATGTATAATAATGTACGCATTAAATATAATTA [XGTACX_site7851]”, the “gcPBM binding intensity (ln)” value is 6.98.

With “ATAATATATATTAATACACACACACCGATATATATA [CACACA_site9261]”, the “gcPBM binding intensity (ln)” value came to 7.44. Regarding “GACCAATACTTTAAAAGTACAAACCTTATTTTATTT [XGTACX_site2718]”, the “gcPBM binding intensity (ln)” value turned out to be 7.22. To “AATTATGCATTTGTCACACATATATATTACACTTGC [CACACA_site5324]” belongs 7.13.

Take “AAAAAAAAAAAAAAATGTACATTATACACATTATAT [XGTACX_site6824]”: the “gcPBM binding intensity (ln)” value stood at 7.29.

For the sequence “TAGCCAAAATATAATTTACACACTTATTAAATAATT [CACACA_site7963]”, the “gcPBM binding intensity (ln)” value stood at 6.79. For the sequence “ATATAATATTGAGTTTGTACATATATATATGAAGAT [XGTACX_site4444]”, the “gcPBM binding intensity (ln)” value came to 7.15. Take “AAATAAATATATATATGTACATACAAATACACGGTA [XGTACX_site8510]”: the “gcPBM binding intensity (ln)” value came to 7.09.

Regarding “AAGAAAAATGTCATATGATATCATATATTTTATAAT [TGCATGCA_negctrl_site296]”, the “gcPBM binding intensity (ln)” value worked out at 6.82. Consider “ATTTTCCCTTGTTTTACACACGTGCTGATATGAGAT [CACACA_site2164]”, for which the “gcPBM binding intensity (ln)” value was 7.31. As for “GTATTATCTGCTTTTTGTACACATATATTTAAAAAA [XGTACX_site7603]”, the “gcPBM binding intensity (ln)” value amounted to 7.91. “TTCTGTGTGTATTGGCGTACAATTATTTTGCCTACA [XGTACX_site205]”: the “gcPBM binding intensity (ln)” value came out at 7.52. On to “ACATTCACAAAATTTTGTACACATATATATATATAT [XGTACX_site3518]”, for which the “gcPBM binding intensity (ln)” value was determined as 9.23.

Turning to CGATTTTTTAAGTTTGTGCACTTAAAAACTATAACA, the “gcPBM binding intensity (ln)” value came out at 9.78. Turning to “CCATTTGATAATAATGCACACCACATATATTTATAT [CACACA_site9002]”, the “gcPBM binding intensity (ln)” value was 7.59.

“AAAAGGAATTATAGGAAATAAATATATACAAATATA [TGCATGCA_negctrl_site528]”: the “gcPBM binding intensity (ln)” value worked out at 6.86. For the sequence “TATACTATACAACACATACACACAAAAAAAAAAAAA [CACACA_site537]”, the “gcPBM binding intensity (ln)” value was 7.22. With “TATATGTCAATATCTACACACATATAGGTAATTATT [CACACA_site7475]” the figure was 6.71; with “TATTTCAAAATAAAATAAAATATATATATATGTATA [XGTACX_negctrl_site416]”, 6.95. With “TTTATTTATTAAGAATGTACATGTATTTGTTAAATA [XGTACX_site4465]” the figure was 7.29.

Take “TAAATCATGGGATAAGCATGCGCGCACATGTTTGTT [TGCATGCA_site768]”: the “gcPBM binding intensity (ln)” value worked out at 7.05. For “ACCCACGTAAATTAAGCATGCCTTCCGTTATATTTA [TGCATGCA_site365]”, the “gcPBM binding intensity (ln)” value came to 6.99. As for “TTTTACTAAATATATACACACATTATGCATATATAT [CACACA_site3287]”, the “gcPBM binding intensity (ln)” value worked out at 7.57.

Take “TATATGTAATATTATACATGCATACATAATATATAT [TGCATGCA_site558]”: the “gcPBM binding intensity (ln)” value is 7.31. Take “TTTTTTTTTTATAAGGCACACATGAATATTTATACA [CACACA_site1316]”: the “gcPBM binding intensity (ln)” value was determined as 7.03.
